Source: PubChem BioAssay (NCI)
Several values for one entry are separate records, joined by “and”; a condition that tells them apart may be missing. Identical values can stand only once.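 Interpolation was linear, between the two tested concentrations surrounding the appropriate level; five concentrations were tested over 48 hours in 96-well plates. At the GI50, growth is halved. At the TGI there is no net growth.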

Test system: NCI-H322M lung
Test: NCI tumour cell line growth inhibition, 48 h

Structure (SMILES)	TGI	GI50
Cc1n(CC(C)C)c2c([n+]1CC(=O)c1ccc([N+](=O)[O-])cc1)C(=O)c1ccccc1C2=O	0.262 µM	
CCCCC1=CC1(C#N)[N+](=O)[O-] (centres undefined)	> 100 µM	
COc1cc(C2C(C(=O)OCc3ccccc3)=C(C)NC(C)=C2C(=O)OCc2ccccc2)cc(OC)c1OC	> 100 µM	> 100 µM
COc1ccc(OC)c(-c2cc(C(=O)O)c3cc4ccccc4cc3n2)c1	> 100 µM	
COCN1C(=O)[C@@H]2CCCN2C(=O)c2cc(Cl)ccc21	> 100 µM	
COC1CC(n2ccc(=O)[nH]c2=O)OC1CO (centres undefined)	> 100 µM	
CCCCCCCCCCCCCC(=O)OC1C(CO)OC(=O)C1O (centres undefined)	> 100 µM	
Cc1nc2sc(C(=O)Nc3cccc(Cl)c3C)c(N)c2cc1C(=O)c1ccccc1	> 50 µM	0.403 µM
Cc1ccc(S(=O)(=O)c2ccsc2NC(=O)c2ccccc2)cc1	> 100 µM	
O=C1c2cscc2C(=O)c2c(OCc3ccccc3)ccc(OCc3ccccc3)c21	> 100 µM	
O=C1C(Cl)=C(Nc2ccccn2)C(=O)c2ccccc21	20.4 µM	7.14 µM
O=C(O)C1CCCCC1C(=O)Nc1nc2ccccc2[nH]1 (centres undefined)	> 100 µM	
Cc1ccc(Nc2cc(=O)[nH]c(=O)[nH]2)cc1CS	> 100 µM	
C=CCCCCn1c2ccccc2c2c(C)c3c[n+](C)ccc3c(C)c21	3.86 µM	
COC(=O)C(CCSc1ccccc1)C(=O)OC	> 100 µM	
CCOC(=O)/C(=C/c1ccc(Cl)cc1)N(CC)CC	> 100 µM	
Cc1ccc(N=Nc2c(C)nn(C(=O)CC(=O)Nc3ccc(Cl)cc3)c2C)cc1C	> 100 µM	
COC(=O)C1CCC[C@H]2C(CO)=C(C)C(=O)[C@@H]12 (some centres undefined)	> 100 µM	
Cc1cccc2c1NC(=O)C2(c1ccc(O)cc1)c1ccc(O)cc1	29.1 µM	< 0.0195 µM
CN1CCN(CCCN2c3ccccc3Sc3ccc(C(F)(F)F)cc32)CC1	19.1 µM and 21.4 µM and 25.5 µM	6.29 µM
O=C(Nc1ccc(O)c(NS(=O)(=O)c2ccc(F)cc2)c1)c1ccc(-c2ccccc2)cc1	25.8 µM	10.4 µM
COc1ccc2c([nH]c3cc(O)c(C)cc32)c1CC=C(C)C	> 25 µM	10.6 µM
C/C=C1\C[C@@H]2C(OC)Nc3cc(O)c(OC)cc3C(=O)N2C1 (some centres undefined)	0.152 µM and 0.0762 µM	0.0301 µM
O=C(c1ccncc1)N1CCN(C2=NS(=O)(=O)c3ccccc3N2c2ccccc2)CC1	> 100 µM	63.1 µM
Cc1nc2ccc(S(=O)(=O)Nc3ccccc3Cl)cc2c(=O)n1NC(=O)CNc1ccccc1Cl	> 100 µM	
O=c1c2ccccc2n2n1Cc1ccccc1C2	> 100 µM	
Cc1cn(C2CC(N=[N+]=[N-])C(CO)O2)c(=O)n(CCCCO)c1=O (centres undefined)	> 100 µM	
NC(=O)OCC(COc1ccc(Cl)cc1)OC(=O)c1cc([N+](=O)[O-])cc([N+](=O)[O-])c1 (centres undefined)	> 100 µM	
C/C=C(\C)C(=O)OC1C2C(C)C(=O)OC2C(O)C(C)C2C=CC(=O)C21C (centres undefined)	26.5 µM	
O=[N+]([O-])c1cc([N+](=O)[O-])c(C(Cl)C(Cl)c2ccccc2)cc1C(Cl)C(Cl)c1ccccc1 (centres undefined)	29.3 µM	
